# According to PubChem BioAssay AID686978 (National Center for Advancing Translational Sciences (NCATS), 2013):
# The whole screen tested about 420,000 compounds, of which about 64,000 (15%) were called active. The shares of active, inactive and inconclusive entries below differ from those in the screen. Calls follow the shape of the dose curve; as a rule, active = well fitted inhibition curve with a large enough effect; inconclusive = small, poorly fitted or top-dose-only effect; inactive = flat fitted curve, though single readings scatter. No potency is given beside an inconclusive call; the fits are too rough.
# Experiment: qHTS for Inhibitors of human tyrosyl-DNA phosphodiesterase 1 (TDP1): qHTS in cells in absence of CPT; also: nearly all actives have a fitted effect of over 55% in size
# Conditions: DT40 Tdp1-/- hTDP1 cells, no CPT, ATP luminescence, 48 h; activity change, negative = growth inhibition: at 46.2 µM (top of the series) unless noted
# Method in brief: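 No-CPT arm: Tdp1-/-;hTDP1 DT40 cells (400/well) plus compounds, incubated ≥48 hr at 37 °C. Readout CellTiter-Glo luminescence.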
# % is scaled to controls: 0 for no effect and ±100 for the full control effect; potency is read from the fitted curve at half-maximal effect; tags tell the direction and shape of the fitted curve.
SMILES,Potency,"activity change, negative = growth inhibition"
CCCC(=O)Nc1ccc(N2CCN(C(=O)c3cc4ccccc4o3)CC2)cc1,"inconclusive [inhibitor, partial curve]",–
O=C(CCCSc1nc2ccccc2[nH]1)Nc1nnc(-c2ccccc2)o1,"inconclusive [inhibitor, partial curve, poor fit]",–
CC(C)(C)NC(=O)C(c1ccc(Cl)cc1)N(Cc1ccco1)C(=O)CCl (stereo not given),active: 2.91 µM,–
O=C(CN1CCOCC1)N1CCc2ccccc2C(c2ccccc2)C1 (stereo not given),"inconclusive [inhibitor, single point]",–
Cc1ccc(S(=O)(=O)N(C)C)cc1NC(=O)C(C)NC(C)c1cccs1 (stereo not given),inactive,–
Cc1ccccc1-c1cc2nc(C)c(Cl)c(=O)n2[nH]1,"inconclusive [inhibitor, single point]",–
COc1ccc(NC(=O)C2CCCN(c3ncnc4onc(C)c34)C2)cc1OC (stereo not given),active: 23.1 µM,–
Cc1cc(-n2c(C)cc(C(=O)CSc3[nH]c(=O)cc(C(F)(F)F)c3C#N)c2C)no1,"inconclusive [inhibitor, single point]",–
COc1ccc(C(=O)NCc2ccc3c(c2)CCN3C(C)=O)c(OC)c1,inactive,–
COc1ccc(-c2noc(CCC(=O)NCc3ccco3)n2)cc1,inactive,–
O=C(COc1ncnc2c(Cl)cc(Cl)cc12)N1CCN(S(=O)(=O)c2ccccc2)CC1,"inconclusive [inhibitor, partial curve]",–
FC(F)(F)C1=NNC(c2ccc3ccccc3c2)=NN1,"inconclusive [inhibitor, single point]",–
COc1ccccc1NC(=O)Cn1cnc2sc(C(=O)NCc3ccco3)c(C)c2c1=O,"inconclusive [inhibitor, partial curve]",–
COc1cccc(/C=N/Nc2snc(SC)c2C#N)c1O,active: 2.59 µM,–
CCc1ccccc1NC(=O)Cn1nc(CC)n2c(cc3sccc32)c1=O,–,inconclusive: -30% [inhibitor]
CCC(Oc1ccccc1)C(=O)NCCOC (stereo not given),"inconclusive [inhibitor, single point]",–
O=[N+]([O-])c1cc(C=Nc2ccc3ccccc3c2)ccc1Br,active: 2.91 µM,–
Cc1nc(Nc2cccc(F)c2)c2oc3ccccc3c2n1,"inconclusive [inhibitor, partial curve]",–
CC(C)(C)c1ccc(/C=C(\c2nc3ccccc3[nH]2)S(=O)(=O)c2ccccc2)cc1,"inconclusive [inhibitor, partial curve]",–
CC(=O)c1ccc(NC(=O)CSc2nnc(C3CC3)n2C)cc1,inactive,–
CC1CC(C)CN(CC(O)COC2CC(C)CC(C)(C)C2)C1 (stereo not given),"inconclusive [inhibitor, single point]",–
Cc1ccc(C)c(N2CCN(C(=O)CCn3c(=S)[nH]c4cc5c(cc4c3=O)OCO5)CC2)c1,–,inconclusive: -36.2% [inhibitor]
CCC(=O)OC1=C(C(C)=O)N(Cc2ccccc2)S(=O)(=O)c2ccccc21,"inconclusive [inhibitor, single point]",–
C=CCOc1c(CNc2ncn[nH]2)cccc1OCC,–,inconclusive: -31.2% [inhibitor]

SMILES,Potency,"activity change, negative = growth inhibition"
CCOC(=O)N1CCC(NC(=O)CCc2nc(-c3ccc(C)cc3)no2)CC1,"inconclusive [inhibitor, partial curve]",–
CC(C)NC(=O)N(C)C[C@H]1Oc2ccc(NS(=O)(=O)c3cn(C)cn3)cc2C(=O)N([C@H](C)CO)C[C@@H]1C,inactive,–
O=C(c1cc2ccccc2[nH]1)N(Cc1cccnc1)CC1CCCN(C2CCCCC2)C1 (stereo not given),"inconclusive [inhibitor, single point]",–
CCOC(=O)CNC(=O)Nc1cc(C(C)(C)C)nn1-c1ccccc1,inactive,–
CC(C)CCn1c(=O)c2ccccc2n2c(CN3C(=O)NC4(CCC(C)CC4)C3=O)nnc12 (stereo not given),"inconclusive [inhibitor, single point]",–
Cc1ccc(-c2c3c(=O)n(C)c(=O)n(C)c3c3n2-c2ccccc2NC3c2ccc(C)cc2O)cc1 (stereo not given),active: 20.6 µM,–
Cc1ccc2c(cnn2C(=O)CCCC(=O)NCc2ccc(Cl)cc2)c1,"inconclusive [inhibitor, single point]",–
CC1(C(=O)NS(=O)(=O)Cc2ccccc2C(F)(F)F)CCN1C(=O)C/C=C/c1ccccc1 (stereo not given),active: 23.1 µM,–
Clc1ccc(-n2ncc3c(N4CCCC4)ncnc32)cc1,inactive,–
COc1c(CC=C(C)C)cc(C2CC(=O)c3c(O)cc(O)cc3O2)c(CC=C(C)C)c1O (stereo not given),"inconclusive [inhibitor, single point]",–
CC(=O)Nc1ccc(S(=O)(=O)Nc2ccc3c(c2)OCCO3)cc1,active: 7.31 µM,–
COC(=O)c1cc(C#N)c(Oc2ccc(OC)cc2)nc1C,inactive,–
C=CCN1C=C2C(=O)C(C)(OC(=O)CCc3ccccc3)C(=O)C=C2C=C1c1ccc(C#N)cc1 (stereo not given),"inconclusive [inhibitor, single point]",–
COc1ccc(-c2cc(C(=O)N3CCCCC3C)no2)cc1OC (stereo not given),inactive,–
O=c1ccnc(Nc2ccc([N+](=O)[O-])cc2)[nH]1,"inconclusive [inhibitor, single point]",–
COc1cc2c(cc1OC)[C@@H](NC(=O)Cc1ccc(F)cc1)[C@H](OCc1ccccc1)C2,"inconclusive [inhibitor, single point]",–
C=CCn1c(SCc2cc(C(=O)OC)c(C)o2)nnc1-c1ccncc1,inactive,–
C=CCCc1ccc(C#N)c(SCc2c(C(=O)OCC)c3cc(OC(C)=O)c(Br)cc3n2C)n1,active: 29.1 µM,–
ClC(Br)=C(n1cnc2ccccc21)n1cnc2ccccc21,"inconclusive [inhibitor, single point]",–
CCOc1ccc(OCC)c(NC(=O)c2nnn(CC(=O)Nc3cc(Cl)ccc3OC)c2N)c1,inactive,–
COc1ccccc1C(=O)N/C(=C\c1cn(S(=O)(=O)N(C)C)c2ccccc12)C(=O)N1CCN(C)CC1,"inconclusive [inhibitor, single point]",–
COc1ccc(S(=O)(=O)N2CCCCCC2)cc1C(=O)N(C)CCOc1ccccc1,active: 18.4 µM,–
CCCS(=O)(=O)c1c(S(=O)(=O)CCC)c2cnccn2c1C(=O)c1ccc(OC)cc1,"inconclusive [inhibitor, full curve, poor fit]",–
Cc1ccc(Cl)cc1N1CCN(S(=O)(=O)c2cn(C)c(C)n2)CC1,"inconclusive [inhibitor, single point]",–

SMILES,Potency,"activity change, negative = growth inhibition"
CCOc1ccc(NC(=O)Cn2c(=O)oc3cc(Cl)ccc32)cc1,"inconclusive [inhibitor, partial curve, poor fit]",–
COc1ccc(OCC(=O)Nc2cc(S(=O)(=O)N3CCCCC3)ccc2OC)cc1,"inconclusive [inhibitor, partial curve]",–
COC(=O)c1ccc(CSc2nnnn2-c2ccc(C)cc2C)o1,"inconclusive [inhibitor, single point]",–
CC1Cc2ccccc2N1C(=O)CSc1nn2c(=O)c(C(C)(C)C)nnc2s1 (stereo not given),"inconclusive [inhibitor, single point]",–
CCOc1cccc(CN(CC)CC2CCCN(CCc3cccc(OC)c3)C2)c1O (stereo not given),active: 16.4 µM,–
CCOC(=O)c1sc(=S)n(-c2ccc(Cl)cc2)c1SC,inactive,–
CC1CCCN(C(=O)CCCn2c(=S)[nH]c3ccccc3c2=O)C1 (stereo not given),"inconclusive [inhibitor, single point]",–
COc1ccc(CCN(C)CC(=O)Nc2cc(C)nc3ccccc23)cc1OC,"inconclusive [inhibitor, partial curve]",–
N#Cc1cccc(N=c2ssnc2Cl)c1,active: 6.51 µM,–
Cc1ccc2c(cnn2C(=O)CCC(=O)NC2CCCC2)c1,inactive,–
O=C(CCC1CCCN(C(=O)c2ccc3c(c2)OCO3)C1)N1CCN(c2ccccn2)CC1 (stereo not given),"inconclusive [inhibitor, partial curve]",–
CN(C(=O)CSc1nc(-c2ccccc2)no1)c1ccc(F)cc1,"inconclusive [inhibitor, single point]",–
O=C(CN(Cc1ccccc1)C(=O)c1cccc([N+](=O)[O-])c1)Nc1c(Cl)cc(Cl)cc1Cl,active: 11.6 µM,–
Cc1onc(-c2ccccc2Cl)c1C(=O)OCn1nnc2ccccc2c1=O,active: 15.8 µM,–
COc1ccc(C(=O)c2sc3nc4c(c(C(F)(F)F)c3c2N)CN(C(C)=O)CC4)cc1OC,active: 16.4 µM,–
O=c1[nH]c(C2CCN(S(=O)(=O)c3ccc(C(F)(F)F)cc3)CC2)nc2c1nnn2Cc1cccc(F)c1,"inconclusive [inhibitor, single point]",–
O=Cc1c(N2CCN(c3ccccc3)CC2)nc2ccccn2c1=O,–,inconclusive: -30.3% [inhibitor]
COc1cccc(-c2sc3cc(OC)c(OC)cc3c2-c2ccc(OCCN3CCCCC3)cc2)c1,active: 13 µM,–
Cc1ccccc1N1CCN(C(=O)c2ccccc2NC(=O)c2ccccc2C(=O)O)CC1,"inconclusive [inhibitor, single point]",–
COc1cc(C2C3=C(CC(c4ccco4)CC3=O)Nc3ccccc3N2C(C)=O)cc(OC)c1OC (stereo not given),inactive,–
Cc1ccc2cc3cc(C(=O)N4CCCCC4C)oc3nc2c1 (stereo not given),"inconclusive [inhibitor, partial curve]",–
COc1ccc(CN2C[C@@H](CO)O[C@@H](n3cnc4c(NCc5ccco5)ncnc43)C2)cc1,inactive,–
